From paper PMC11050213
Results are given in words; binding and its absence hold for the method and conditions named. Some results given as binding are weak or reduced against the parent protein; the word gives no strength. One block for each binder: values may come before it.

Columns and labels:
[1] = target: T1, Arabidopsis ELP6 (Arabidopsis thaliana) (UniProt Q8L9Y2); test: two-hybrid; β-galactosidase (X-gal) assay of co-transformed yeast grown on SD/-Leu-Trp-His+3-AT with 500 μg/mL X-gal, 30 °C
T1 sequence: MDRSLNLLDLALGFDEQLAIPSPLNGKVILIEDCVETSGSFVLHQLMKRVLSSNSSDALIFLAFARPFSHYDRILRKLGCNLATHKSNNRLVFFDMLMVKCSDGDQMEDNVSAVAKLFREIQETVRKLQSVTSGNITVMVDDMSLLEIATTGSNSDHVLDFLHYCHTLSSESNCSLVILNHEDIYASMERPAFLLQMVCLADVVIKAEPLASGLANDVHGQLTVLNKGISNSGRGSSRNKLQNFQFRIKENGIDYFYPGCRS

[2] = target: T2, Arabidopsis ELP4 (Arabidopsis thaliana) (UniProt Q9C778); test: two-hybrid; GAL4-based ProQuest system, yeast MaV203; bait in pDEST32 (BD), prey in pDEST22 (AD); growth on SD/-Leu/-Trp/-His with 10 mM 3-AT
T2 sequence: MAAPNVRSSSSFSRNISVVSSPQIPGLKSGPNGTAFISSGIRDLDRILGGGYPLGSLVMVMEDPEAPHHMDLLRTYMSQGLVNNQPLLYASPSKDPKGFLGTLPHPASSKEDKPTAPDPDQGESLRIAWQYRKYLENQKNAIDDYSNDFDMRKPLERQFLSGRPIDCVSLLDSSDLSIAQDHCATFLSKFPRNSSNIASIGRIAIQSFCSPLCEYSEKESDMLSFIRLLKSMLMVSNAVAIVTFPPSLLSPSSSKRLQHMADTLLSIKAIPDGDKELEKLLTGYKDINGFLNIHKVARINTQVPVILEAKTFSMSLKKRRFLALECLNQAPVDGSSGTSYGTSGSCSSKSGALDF

[3] = target: T1, Arabidopsis ELP6 (Arabidopsis thaliana); test: as above
[4] = target: T2, Arabidopsis ELP4 (Arabidopsis thaliana); test: two-hybrid; β-galactosidase (X-gal) assay of co-transformed yeast grown on SD/-Leu-Trp-His+3-AT with 500 μg/mL X-gal, 30 °C

binding [1]: binds
binding [2]: no binding
binding [3]: binds
B1: Arabidopsis ELP5 (protein, UniProt F4IQJ2 1-374)
chain: MAESIFRKLRDGGEEGELAPALTIEETVASPFGLDVSGYLLTNLSSSILAGKSSSQGLVLITFSRSPSFYLQLLKQKGIVVSSSSKWIRILDCYTDPLGWIDQSSTSFSEGSSLIKLHKCVSDLKKLFSSIIEAGRELVGTGKTRFCVAIDSVNELLRHSAMPLVSGLLTDLRSHAQISSVFWSLNTDLHQEKVTNALEYISTMKANLEPLCPSSDGQRNALENLFSVHQDFGKGRFHVRFKLRKGRVRVMSEEYHVDQSGINFSPISSVDTVIAATKSLLPKVQFNLQLSEKERVEKEKVVLPFEHQDDGKSNEIYDGRRSLVDGKIETTPLSSMELQTDVVSSGKGGEIIYFRDSDDEHPDSDEDPDDDLDI

binding [2]: no binding
binding [3]: no binding
B2: Deformed Roots and Leaves 1 (DRL1) (protein, UniProt Q9LMH0 1-302)
chain: MALVVICGQPCSGKSIAAVTLAETLKESETKQSVRIIDEASFHLDRNQNYANMPAEKNLRGKLRSDVDRSVSTGEIVIVDSLNSIKGYRYELWCIARAAGIRYCVVYCDVDEAHCRQWNKERSDRGEDGYDDGIFEDLVRRFEKPERRNRWDSPLFELYPSREVIDKSSPVILEAVTYLTKTVDSKTQDVRILQPSIATQAARFSEANSLYELDRATQEIINAIVEQQSLGAAISRVTLGNELPPIEICRPIGLPELRRLRRTFVKLMGQSSLSGPPLPTDADSAKRRFVDYLNREFGGNNA

binding [4]: binds
binding [2]: binds
binding [3]: no binding
B3: Arabidopsis ELP6 (protein, UniProt Q8L9Y2 1-262)
chain: T1 sequence

binding [2]: no binding
binding [3]: no binding
B4: Arabidopsis ELP3 (protein, UniProt Q93ZR1 1-565)
chain: MATAVVMNGELKKQPRPGKGGYQGRGLTEEEARVRAISEIVSTMIERSHRNENVDLNAIKTAACRKYGLARAPKLVEMIAALPDSERETLLPKLRAKPVRTASGIAVVAVMSKPHRCPHIATTGNICVYCPGGPDSDFEYSTQSYTGYEPTSMRAIRARYNPYVQARSRIDQLKRLGHSVDKVEFILMGGTFMSLPAEYRDFFIRNLHDALSGHTSANVEEAVAYSEHSATKCIGMTIETRPDYCLGPHLRQMLIYGCTRLEIGVQSTYEDVARDTNRGHTVAAVADCFCLAKDAGFKVVAHMMPDLPNVGVERDMESFKEFFESPSFRADGLKIYPTLVIRGTGLYELWKTGRYRNYPPEQLVDIVARILSMVPPWTRVYRVQRDIPMPLVTSGVEKGNLRELALARMDDLGLKCRDVRTREAGIQDIHHKIKPEQVELVRRDYTANEGWETFLSYEDTRQDILVGLLRLRKCGKNVTCPELMGKCSVVRELHVYGTAVPVHGRDADKLQHQGYGTLLMEEAERIARREHRSNKIGVISGVGTRHYYRKLGYELEGPYMVKHLL
